The values that follow come from publication PMC12820563.

The list shows a part of the results. The list includes weakly bound sequences.

In the assay the target is T1, MBP-FoxP3dN (UniProt Q99JB6).
T1 sequence: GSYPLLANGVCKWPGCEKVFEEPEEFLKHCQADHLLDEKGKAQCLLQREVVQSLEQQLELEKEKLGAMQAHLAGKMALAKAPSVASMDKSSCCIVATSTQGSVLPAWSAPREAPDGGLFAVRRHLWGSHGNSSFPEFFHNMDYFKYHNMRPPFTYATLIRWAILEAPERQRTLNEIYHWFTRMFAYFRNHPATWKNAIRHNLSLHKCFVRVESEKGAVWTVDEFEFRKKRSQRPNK
Put plainly: PD-seq (MBP pull-down with sequencing). The conditions noted are these: 20 mM Tris-HCl pH 7.5, 100 mM NaCl, 1.5 mM MgCl2, 0.4 uM protein, 0.1 uM dsDNA library, 30 min, room temperature, amylose pull-down; high values mean tight binding; double strand, one strand shown.
With “GATGATTGTTCTCCCAGCTGATGAATTAGACGCGTCGAGTAAACAAATTTTCCTAATCTTTCTGTTCAAGCGCCATCTAC”, the binding signal (RPM ratio (pull-down/input)) was determined as 0.709.

With “GATGATTGTTCTCCCAGCTGATGAATTACGTTCGTCGAGTAAACAAATTTTCCTAATCTTTCTGTTCAAGCGCCATCTAC”, the binding signal (RPM ratio (pull-down/input)) came to 0.554.

In the case of “GATGATTGTTCTCCCAGCTGATGAATTACCCTTCTCGAGTAAACAAATTTTCCTAATCTTTCTGTTCAAGCGCCATCTAC”, the binding signal (RPM ratio (pull-down/input)) worked out at 0.356.

In the case of “GATGATTGTTCTCCCAGCTGATGAATTACGAGCATCGAGTAAACAAATTTTCCTAATCTTTCTGTTCAAGCGCCATCTAC”, the binding signal (RPM ratio (pull-down/input)) turned out to be 0.816.

For “GATGATTGTTCTCCCAGCTGATGAATTCGCTGACTCGAGTAAACAAATTTTCCTAATCTTTCTGTTCAAGCGCCATCTAC”, the binding signal (RPM ratio (pull-down/input)) stood at 0.961.

“GATGATTGTTCTCCCAGCTGATGAATTCCGTAAGTCGAGTAAACAAATTTTCCTAATCTTTCTGTTCAAGCGCCATCTAC”: the binding signal (RPM ratio (pull-down/input)) came out at 0.394.

Turning to “GATGATTGTTCTCCCAGCTGATGAATTTTACAATTCGAGTAAACAAATTTTCCTAATCTTTCTGTTCAAGCGCCATCTAC”, the binding signal (RPM ratio (pull-down/input)) came to 0.31.

For “GATGATTGTTCTCCCAGCTGATGAATTATACCCTTCGAGTAAACAAATTTTCCTAATCTTTCTGTTCAAGCGCCATCTAC”, the binding signal (RPM ratio (pull-down/input)) was 0.367.

“GATGATTGTTCTCCCAGCTGATGAATTCAAACCGTCGAGTAAACAAATTTTCCTAATCTTTCTGTTCAAGCGCCATCTAC”: the binding signal (RPM ratio (pull-down/input)) stood at 0.258.

Regarding “GATGATTGTTCTCCCAGCTGATGAATTATATCGTTCGAGTAAACAAATTTTCCTAATCTTTCTGTTCAAGCGCCATCTAC”, the binding signal (RPM ratio (pull-down/input)) is 1.04.

On to “GATGATTGTTCTCCCAGCTGATGAATTTGGTACATCGAGTAAACAAATTTTCCTAATCTTTCTGTTCAAGCGCCATCTAC”, for which the binding signal (RPM ratio (pull-down/input)) was determined as 0.714.

“GATGATTGTTCTCCCAGCTGATGAATTGTTGAGGTCGAGTAAACAAATTTTCCTAATCTTTCTGTTCAAGCGCCATCTAC”: the binding signal (RPM ratio (pull-down/input)) was 0.677.

Regarding “GATGATTGTTCTCCCAGCTGATGAATTTGGGACGTCGAGTAAACAAATTTTCCTAATCTTTCTGTTCAAGCGCCATCTAC”, the binding signal (RPM ratio (pull-down/input)) amounted to 0.354.

Regarding “GATGATTGTTCTCCCAGCTGATGAATTTCCATTCTCGAGTAAACAAATTTTCCTAATCTTTCTGTTCAAGCGCCATCTAC”, the binding signal (RPM ratio (pull-down/input)) amounted to 0.384.

As to “GATGATTGTTCTCCCAGCTGATGAATTGGTAAAATCGAGTAAACAAATTTTCCTAATCTTTCTGTTCAAGCGCCATCTAC”, the binding signal (RPM ratio (pull-down/input)) is 0.211.

For “GATGATTGTTCTCCCAGCTGATGAATTGGCGGGGTCGAGTAAACAAATTTTCCTAATCTTTCTGTTCAAGCGCCATCTAC”, the binding signal (RPM ratio (pull-down/input)) is 0.314.

Consider “GATGATTGTTCTCCCAGCTGATGAATTAAAATGTTCGAGTAAACAAATTTTCCTAATCTTTCTGTTCAAGCGCCATCTAC”, for which the binding signal (RPM ratio (pull-down/input)) worked out at 0.448.

Take “GATGATTGTTCTCCCAGCTGATGAATTTCACGTCTCGAGTAAACAAATTTTCCTAATCTTTCTGTTCAAGCGCCATCTAC”: the binding signal (RPM ratio (pull-down/input)) turned out to be 0.378.

Take “GATGATTGTTCTCCCAGCTGATGAATTAGAATCTTCGAGTAAACAAATTTTCCTAATCTTTCTGTTCAAGCGCCATCTAC”: the binding signal (RPM ratio (pull-down/input)) turned out to be 0.454.

Consider “GATGATTGTTCTCCCAGCTGATGAATTACTCTAGTCGAGTAAACAAATTTTCCTAATCTTTCTGTTCAAGCGCCATCTAC”, for which the binding signal (RPM ratio (pull-down/input)) was found to be 0.281.

As to “GATGATTGTTCTCCCAGCTGATGAATTATTTTACTCGAGTAAACAAATTTTCCTAATCTTTCTGTTCAAGCGCCATCTAC”, the binding signal (RPM ratio (pull-down/input)) stood at 0.529.

Turning to “GATGATTGTTCTCCCAGCTGATGAATTTTTCCCCTCGAGTAAACAAATTTTCCTAATCTTTCTGTTCAAGCGCCATCTAC”, the binding signal (RPM ratio (pull-down/input)) turned out to be 0.195.

“GATGATTGTTCTCCCAGCTGATGAATTCATAAGGTCGAGTAAACAAATTTTCCTAATCTTTCTGTTCAAGCGCCATCTAC”: the binding signal (RPM ratio (pull-down/input)) was found to be 0.205.

With “GATGATTGTTCTCCCAGCTGATGAATTACATGGATCGAGTAAACAAATTTTCCTAATCTTTCTGTTCAAGCGCCATCTAC”, the binding signal (RPM ratio (pull-down/input)) worked out at 0.348.

With “GATGATTGTTCTCCCAGCTGATGAATTATATCCTTCGAGTAAACAAATTTTCCTAATCTTTCTGTTCAAGCGCCATCTAC”, the binding signal (RPM ratio (pull-down/input)) was 0.462.

With “GATGATTGTTCTCCCAGCTGATGAATTGTAGACCTCGAGTAAACAAATTTTCCTAATCTTTCTGTTCAAGCGCCATCTAC”, the binding signal (RPM ratio (pull-down/input)) was 0.413.

For “GATGATTGTTCTCCCAGCTGATGAATTGTTATTATCGAGTAAACAAATTTTCCTAATCTTTCTGTTCAAGCGCCATCTAC”, the binding signal (RPM ratio (pull-down/input)) worked out at 5.54.

“GATGATTGTTCTCCCAGCTGATGAATTTGCACACTCGAGTAAACAAATTTTCCTAATCTTTCTGTTCAAGCGCCATCTAC”: the binding signal (RPM ratio (pull-down/input)) is 0.829.

In the case of “GATGATTGTTCTCCCAGCTGATGAATTACTGCGCTCGAGTAAACAAATTTTCCTAATCTTTCTGTTCAAGCGCCATCTAC”, the binding signal (RPM ratio (pull-down/input)) came out at 0.516.

Regarding “GATGATTGTTCTCCCAGCTGATGAATTTAACCCTTCGAGTAAACAAATTTTCCTAATCTTTCTGTTCAAGCGCCATCTAC”, the binding signal (RPM ratio (pull-down/input)) came to 0.322.

As for “GATGATTGTTCTCCCAGCTGATGAATTGCATTACTCGAGTAAACAAATTTTCCTAATCTTTCTGTTCAAGCGCCATCTAC”, the binding signal (RPM ratio (pull-down/input)) is 2.36.

As for “GATGATTGTTCTCCCAGCTGATGAATTGTAGAAATCGAGTAAACAAATTTTCCTAATCTTTCTGTTCAAGCGCCATCTAC”, the binding signal (RPM ratio (pull-down/input)) stood at 0.336.
